Source: the supplement of paper PMC11417369
± gives the standard deviation of the averaged measurements. The list shows a part of the results.

test system: PfAP2-I AP2 domain 3 (GST-tagged); assay: gcPBM binding intensity (ln(normalized median fluorescence intensity)); higher = stronger DNA binding
Outline: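 An Agilent 4 × 180k array of primer-extended double-stranded 36-bp intergenic genomic probes, with negative controls, was incubated for 1 h with GST-tagged P. falciparum DNA-binding domains expressed in E. coli. Alexa488 anti-GST antibody detected bound protein, scanned at 488 nm. Binding intensity is the highest Masliner-normalised natural-log median intensity across replicate spots of either probe orientation.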

Sequence	gcPBM binding intensity (ln)
GAAACATAAAAATATATTGAAATAGTATCATGGGTA [CACACA_negctrl_site352]	7.8 ± 0.57
TATAGTTATATTAGAAGTACTTCATTTTAACATATT [XGTACX_site7101]	7.51 ± 0.2
TTTTTTTTGTATTAATGTACATATAACTTTTTTTTT [XGTACX_site7903]	7.7 ± 0.49
TAAAAAATAAAATAATGTACATATGAATTATATATT [XGTACX_site8398]	7.57 ± 0.53
TTAATTACATGTTATTGTACGTATTTTCTATCTATC [XGTACX_site844]	7.97 ± 0.42
AAATTCTTAACCCAACGTACATATAATAAATTCTTA [XGTACX_site8538]	7.78 ± 0.46
TAAACCAAACAATTATGTATAAGATGTATATATATA [GTGCAC_negctrl_site438]	8.88 ± 0.057
AAAAAGAAGAATATATGTACACAAAATTTATGAGTT [XGTACX_site8609]	7.87 ± 0.56
AAAAAAAAAAATATATTATTTTACTTGTTTATTTTA [CACACA_negctrl_site1447]	7.11 ± 0.31
CATTATAAGAAACACACACACATATATATATATATA [CACACA_site1051]	9.4 ± 0.29
ATTCCCTTAAGAAACTGTACAAAACTTTCTTCGATT [XGTACX_site775]	7.75 ± 0.65
GTGTGTGTATATATTTGTACATATATTTAAACATAT [XGTACX_site1074]	9.08 ± 0.28
TATACATAAATTATATGTACTGAAAATACATAATTA [XGTACX_site3626]	7.32 ± 0.16
GGTAGGTGGATATATACACACATATATTATAGATAT [CACACA_site7021]	8.29 ± 0.23
ATCGAGAAAAATAAAATAATACAATTTCTTTAAATA [XGTACX_negctrl_site162]	7.12 ± 0.56
CACAGATATATACATACACACATATATACACATATA [CACACA_site6323]	8 ± 0.41
AAATGCGCCATGTGTACACATATATATATATATATA [CACACA_site4649]	9.5 ± 0.51
TTAAATAAGTTCTTCACACATATATATATATATATA [CACACA_site4742]	9.35 ± 0.49
TACATATATAAAAATTGTACACTTCATAAGAAAAAA [XGTACX_site4347]	7.89 ± 0.59
AAAATTTTTTAACACTGTACTTGTAATATTAAAACT [XGTACX_site8369]	8.06 ± 0.4
AAGGATTACAAAAAAAGTACAAATGGATTTTTTCCC [XGTACX_site8905]	7.87 ± 0.53
AAAAAAATTCTTGGCGCACACACTTTAAAAATTAAA [CACACA_site597]	8.4 ± 0.3
CTTACAAATAAACAACGTACTTATTCGAATTATGCT [XGTACX_site2431]	7.65 ± 0.52

Sequence	gcPBM binding intensity (ln)
CATACAGACGAACACACACACATATAAATATAAATA [CACACA_site6443]	7.95 ± 0.18
TATAATAAAATTGGTAGTACATTAATTTATGTATAG [XGTACX_site3059]	7.74 ± 0.45
TATTATTTTTTTTTTTGTACATATATGTATATATAT [XGTACX_site8471]	8.26 ± 0.56
AACCACATGGTGTAATGTACATTACCTTAACAATAA [XGTACX_site3055]	8.1 ± 0.83
AAATATTATATATATACACACACACCGGCATGCACA [CACACA_site7916]	8.19 ± 0.35
TTTAAACTAGAACAAGTGCAGATATGTATAATAATA	8.95 ± 0.26
TTTTATTTTGGAACGTGTACATATAATTATTTATTG [XGTACX_site8094]	7.99 ± 0.47
TATTTTTAGAAAATAAAGAAGGAGAATTGAAAATAT [CACACA_negctrl_site361]	7.87 ± 0.67
AAGAAAAGATATATATATAAATATATATATATATAT [TGCATGCA_negctrl_site353]	9.24 ± 0.41
ATTTATTTTTATCAAGCATGCATAAAAAATAAATTA [TGCATGCA_site440]	7.75 ± 0.47
GCATAAAATATGATCGCACACTGTTTAAAATACTTA [CACACA_site828]	8.07 ± 0.6
ATATTACTAATTAATGGTACACGTTATAATAAACTA [XGTACX_site7051]	7.77 ± 0.49
AGGTAGTTCTGTATCACACACATATAAATATAAATA [CACACA_site7110]	7.91 ± 0.57
AAAATATATACAAGCAAACACACGTAATATATATTA [CACACA_site2152]	7.63 ± 0.61
ATACCTTCTTCATTCACACATATACGTAAAATGTTC [CACACA_site5657]	8.28 ± 0.65
ATATATCACATGAACATTAAAAAAAAAAAAGAGGGG [TGCATGCA_negctrl_site187]	8.23 ± 0.12
TTTATACAATTAGACACACACAAAAAGTATAAATAT [CACACA_site6637]	7.88 ± 0.76
ATATCACATTCCACGGTACACACTAATAGAAAAATC [CACACA_site9204]	8.19 ± 0.55
GGAACATATGAACTCACACACATTTTCACTTAAATA [CACACA_site3684]	7.67 ± 0.6
AATATTTATAAATTTACACACACACCGGTGAACATA [CACACA_site8579]	7.79 ± 0.57
TAAAATGATAAATGAATGTGATCATTTTATAAAATA [CACACA_negctrl_site674]	7.38 ± 0.6
TGACATAAATTTAATACACACACAAAGAAAAAAAAA [CACACA_site9354]	7.97 ± 0.61
